# PubChem BioAssay AID602310 (National Center for Advancing Translational Sciences (NCATS), 2012)
# Screen size: about 410,000 compounds; about 310 (0.076%) were called active. The shares of active, inactive and inconclusive entries below differ from those in the screen. Calls follow the shape of the dose curve; as a rule, active = well fitted curve in the direction sought with a large enough effect; inconclusive = small, poorly fitted or top-dose-only effect; inactive = flat fitted curve, though single readings scatter. Potencies of inconclusive entries are doubtful fits and often do not repeat.
# Target: DNA dC->dU-editing enzyme APOBEC-3G (Homo sapiens) (UniProt Q9HC16)
# UniProt Q9HC16, sequence (Q9HC16 whole entry, looked up): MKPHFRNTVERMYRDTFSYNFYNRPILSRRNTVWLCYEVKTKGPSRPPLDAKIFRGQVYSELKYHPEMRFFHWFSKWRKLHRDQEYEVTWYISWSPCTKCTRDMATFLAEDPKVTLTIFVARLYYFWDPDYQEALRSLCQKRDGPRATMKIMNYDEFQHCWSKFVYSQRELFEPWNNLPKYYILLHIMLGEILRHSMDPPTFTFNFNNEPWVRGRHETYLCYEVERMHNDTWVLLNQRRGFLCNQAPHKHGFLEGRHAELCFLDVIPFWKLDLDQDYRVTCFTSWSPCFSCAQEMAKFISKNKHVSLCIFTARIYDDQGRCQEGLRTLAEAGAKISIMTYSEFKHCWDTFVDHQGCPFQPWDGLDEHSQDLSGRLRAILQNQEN
# Experiment: qHTS for Inhibitors of Vif-A3G Interactions: qHTS; also: nearly all actives have a fitted effect of over 60% in size
# Settings: HeLa A3G-eYFP + Vif (tagged APOBEC3G with the HIV-1 protein that degrades it), YFP fluorescence, overnight; series mostly up to 46.1 µM
# In short: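 Read-out is eYFP fluorescence (Ex 488/Em 500-530) from Vif-expressing HeLa A3G-eYFP cells; more signal means A3G escaped Vif-mediated degradation. Cells plated overnight, compound pinned in, incubated overnight at 37 deg C.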
# Potency is read from the fitted curve at half-maximal effect; tags tell the direction and shape of the fitted curve.
row,Structure (SMILES),Potency
1,CCOC(=O)COc1ccccc1/C=C\[N+](=O)[O-],"inconclusive: 3.55 µM [inhibitor, full curve]"
2,Cc1ccc(S(=O)(=O)Nc2ccc(C(=O)N3CCCC3)cc2)cc1,inactive
3,Cc1cc(C)c2c(CC(=O)NCc3ccco3)coc2c1,"inconclusive: 28.2 µM [inhibitor, single point]"
4,O=C(c1cc(S(=O)(=O)N2CCCC2)c[nH]1)N1CCN(c2cccc(Cl)c2)CC1,inactive
5,COCC(=O)N(CCc1ccc(OC)cc1)Cc1nc2ccccc2c(=O)[nH]1,inactive
6,COc1ccc(N2C(=O)c3cccc4c(N(C)CCO)ccc(c34)C2=O)cc1,"inconclusive: 3.16 µM [inhibitor, full curve, poor fit]"
7,N#Cc1c(N)n(CCNC(=O)c2cccs2)c2nc3ccccc3nc12,"inconclusive: 15.8 µM [inhibitor, single point]"
8,COc1ccccc1CNC(=O)c1cc2cccc3c2n1CCS3,"inconclusive: 15.8 µM [inhibitor, single point]"
9,COc1ccccc1/C=N/NC(=O)c1cc2c(ccc3ccccc32)o1,"inconclusive: 8.91 µM [inhibitor, partial curve]"
10,COc1ccc(NC(=O)CN2CCN(Cc3ccc4c(c3)OCO4)CC2)cc1OC,inactive
11,CCS(=O)(=O)N1N=C(c2cccc(NS(C)(=O)=O)c2)CC1c1ccc(C)cc1 (stereo unspecified),"inconclusive: 17.8 µM [inhibitor, partial curve, poor fit]"
12,CCOC(=O)Cc1cc(=O)n2[nH]c(C)c(-c3ccc(Cl)cc3)c2n1,"inconclusive: 35.5 µM [inhibitor, single point]"
13,C=CCOC(=O)C1=C(C)Nc2nnnn2C1c1cccs1 (stereo unspecified),"inconclusive: 0.562 µM [inhibitor, full curve, poor fit]"
14,CN1c2ccccc2C(C)(C)[C@]12C=Cc1cc(O)ccc1O2,"inconclusive: 35.5 µM [inhibitor, single point]"
15,C=CCSC1=NC(=O)/C(=C/c2cccs2)S1,"inconclusive: 15.8 µM [inhibitor, single point]"
16,CC(C)(C)NC(=S)Nc1ccc(Nc2ccccc2)cc1,inactive
17,CCCOc1c(Cl)cc(/C=N/O)cc1OCC,"inconclusive: 22.4 µM [inhibitor, partial curve, poor fit]"
18,O=C(Nc1ccc(N2CCN(C(=O)c3ccc(Cl)cc3)CC2)cc1)c1ccc([N+](=O)[O-])o1,"inconclusive: 3.16 µM [inhibitor, full curve, poor fit]"
19,Cc1ccc(C(=O)NNC(=O)c2ccncc2)cc1C,inactive
20,O=C(O)c1cc(O)ccc1N=Nc1ccccc1,"inconclusive: 22.4 µM [inhibitor, single point]"
21,Cc1nnc(N2CCCC(C(=O)Nc3cc(F)ccc3F)C2)c2nn(-c3ccccc3)c(C)c12 (stereo unspecified),"inconclusive: 35.5 µM [inhibitor, single point]"

row,Structure (SMILES),Potency
1,COc1ccc(NC(=O)Nc2ccc(O)c3ccccc23)cc1,"inconclusive: 20 µM [inhibitor, single point]"
2,N#C/C(=C\Nc1ccccc1O)c1nc2ccccc2o1,"inconclusive: 25.1 µM [inhibitor, single point]"
3,CCCCCCc1cc2cc(-c3nnc(-c4ccccc4)o3)c(=O)oc2cc1O,"inconclusive: 12.6 µM [inhibitor, partial curve, poor fit]"
4,Cc1ccc2nc(N/N=C\c3ccc([N+](=O)[O-])o3)nc(-c3ccccc3)c2c1,"inconclusive: 10 µM [inhibitor, partial curve]"
5,CC(C)(C)n1ncc2c(=O)n(Cc3cccc(-c4cccs4)c3)cnc21,inactive
6,C=C(C)COc1ccc(-c2[nH]ncc2-c2ccc(OC)c(OC)c2)c(O)c1,"inconclusive: 0.562 µM [inhibitor, full curve, poor fit]"
7,O=C(/C=C/c1ccco1)Nc1ccccn1,"inconclusive: 6.31 µM [inhibitor, partial curve]"
8,Cc1cc(Nc2cccc(C(F)(F)F)c2)nc2ccc(NC(=O)c3cccnc3)cc12,inactive
9,O=C(Nc1nc2ccccc2[nH]1)c1ccccc1F,"inconclusive: 12.6 µM [inhibitor, single point]"
10,CC(=O)Nc1cccc(-c2ccnc3c2CC(C(=O)Nc2cccc(N(C)C)c2)O3)c1 (stereo unspecified),"inconclusive: 10 µM [inhibitor, partial curve, poor fit]"
11,CCOc1ccc(-n2nnnc2SCC(=O)c2ccccc2)cc1,"inconclusive: 17.8 µM [inhibitor, partial curve, poor fit]"
12,COc1ccc(OC)c(C2CC(=O)c3c([nH]c(C(=O)OCC4CCCO4)c3C)C2)c1 (stereo unspecified),"inconclusive: 7.08 µM [inhibitor, partial curve, poor fit]"
13,CN1C(=O)C(O)(CC(=O)c2ccccn2)c2cc(Br)ccc21 (stereo unspecified),"inconclusive: 35.5 µM [inhibitor, single point]"
14,COc1cc(OC)c(OC)cc1/C=C1\Oc2cc(OCC(=O)N3Cc4ccccc4C[C@H]3C(=O)O)ccc2C1=O,"inconclusive: 2.82 µM [inhibitor, full curve, poor fit]"
15,COc1cc(S(=O)(=O)n2cnc(C)c2)ccc1Br,"inconclusive: 25.1 µM [inhibitor, single point]"
16,CCOC(=O)c1ccc(/C=C2/C=C(c3ccccc3)N(c3ccc(Cl)c(C(=O)O)c3)C2=O)cc1,"inconclusive: 17.8 µM [inhibitor, partial curve, poor fit]"
17,N#C/C(=C\c1ccc(-c2ccc(Cl)c(C(=O)O)c2)o1)c1nc2ccccc2[nH]1,"inconclusive: 2.24 µM [inhibitor, partial curve, poor fit]"
18,COc1cccc(NC(=O)c2cn(C)c(=O)c3cc(OC)c(OC)cc23)c1,inactive
19,CC(NC(=O)c1cccc2ccccc12)c1ccc2c(c1)CCCC2 (stereo unspecified),"inconclusive: 2.82 µM [inhibitor, partial curve, poor fit]"
20,CCOC(=O)c1c(NC(=S)Nc2ccc(Cl)cc2)sc2c1CCN(C)C2,"inconclusive: 25.1 µM [inhibitor, single point]"
